{
  "source": "PubChem BioAssay AID1671188",
  "about": "(National Center for Advancing Translational Sciences (NCATS), 2021)",
  "note": "Hit rate of the full screen: of about 100,000 compounds, about 250 (0.25%) were called active. This list was built around the results that the source calls inconclusive (neither active nor inactive); the mix of calls is not that of the screen. Calls come from the whole dose curve; as a rule, active = well fitted inhibition curve with a large enough effect; inconclusive = small, poorly fitted or top-dose-only effect; inactive = flat fitted curve, though single readings scatter. No potency is given beside an inconclusive call; the fits are too rough. Potency is the fitted concentration of half-maximal effect; tags give direction and shape of the fitted curve.",
  "data": [
    {"target": "Alanine aminotransferase 2 (Homo sapiens) (UniProt Q8TD30)", "sequence (Q8TD30 whole entry, looked up)": "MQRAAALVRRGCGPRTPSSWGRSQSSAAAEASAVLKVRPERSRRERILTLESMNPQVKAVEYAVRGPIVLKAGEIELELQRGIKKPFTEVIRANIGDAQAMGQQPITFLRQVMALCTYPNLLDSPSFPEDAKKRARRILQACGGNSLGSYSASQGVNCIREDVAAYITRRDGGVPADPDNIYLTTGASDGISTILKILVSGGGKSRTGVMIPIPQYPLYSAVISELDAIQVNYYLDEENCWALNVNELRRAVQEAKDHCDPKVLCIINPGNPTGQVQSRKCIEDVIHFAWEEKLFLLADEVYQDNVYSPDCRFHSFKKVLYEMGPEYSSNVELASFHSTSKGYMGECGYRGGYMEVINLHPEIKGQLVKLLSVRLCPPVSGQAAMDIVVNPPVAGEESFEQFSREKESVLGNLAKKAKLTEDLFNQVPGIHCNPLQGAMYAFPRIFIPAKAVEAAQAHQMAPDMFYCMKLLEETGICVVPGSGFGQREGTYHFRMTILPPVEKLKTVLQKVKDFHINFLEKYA", "test": "Primary qHTS assay for inhibitors of Glutamate pyruvate transaminase 2 (GPT2); note: nearly all actives have a fitted effect of over 60% in size", "details": "Recombinant GPT2, coupled pyruvate oxidase/HRP Amplex Red fluorescence; series mostly up to 57.7 µM", "in_short": "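GPT2 10ng/uL, a-KG 250uM, L-Ala 2mM, HEPES pH7.5 + 0.0001% Tween; 30 min RT. Then Amplex mix (PO/HRP/ThPP), 30 min RT dark, fluorescence. AOA 50uM used as positive control.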", "values": [
      {"smiles": "Cc1cccc(CN2CCC3(CC2)COCCN3C(=O)OCc2ccccc2)c1", "Potency": "inactive"},
      {"smiles": "CN(Cc1cccc(C(F)(F)F)c1)C(=O)CC1CCCC1", "Potency": "inconclusive [inhibitor, single point]"},
      {"smiles": "CN1CCC2(C1)CN(CC1CCOCC1)c1ccc(C(=O)NCCCO)cc12", "note": "(stereo unspecified)", "Potency": "inconclusive [inhibitor, single point]"},
      {"smiles": "O=C(c1cccs1)N1CCOc2ccc(N3CCCC3)cc2C1", "Potency": "active: 1.26 µM"},
      {"smiles": "COc1ccc(Cl)cc1C(=O)NC1CCCN(c2cc(-c3ccccc3)[nH]n2)C1", "note": "(stereo unspecified)", "Potency": "inconclusive [inhibitor, single point]"},
      {"smiles": "COc1ccc(-c2cc(N3CCCN(C(=O)CCCc4ccccc4)CC3)n[nH]2)cc1", "Potency": "inconclusive [inhibitor, single point]"},
      {"smiles": "Cc1cn2nnc(C(=O)NCC3CCCCC3)c2c(=O)[nH]1", "Potency": "inactive"},
      {"smiles": "CN(C)C(=O)c1cccnc1OC1CCNCC1", "Potency": "inconclusive [inhibitor, partial curve, poor fit]"},
      {"smiles": "c1cc(-c2cc(-c3cn[nH]c3)cn3cncc23)ccn1", "Potency": "inconclusive [inhibitor, single point]"},
      {"smiles": "CN1CCCCCC(O)c2cc(C(=O)N3CCc4ccccc43)ccc21", "note": "(stereo unspecified)", "Potency": "inconclusive [inhibitor, single point]"},
      {"smiles": "Cc1nc2scc(CC(=O)NCC(C)C)n2c(=O)c1-c1cc(C)n(-c2cccc(Cl)c2)n1", "Potency": "inactive"},
      {"smiles": "Fc1ccc(-c2cnc([C@@H]3COCCN3Cc3cccnc3)[nH]2)c(F)c1", "Potency": "inconclusive [inhibitor, partial curve, poor fit]"},
      {"smiles": "O=C(c1ccc2c(c1)OCO2)N1CCCN(c2cc(-c3ccc(Br)cc3)[nH]n2)CC1", "Potency": "inconclusive [inhibitor, single point]"},
      {"smiles": "Cc1cccc(-c2nc3ccc(C(=O)N4CCOCC4)cc3o2)n1", "Potency": "inconclusive [inhibitor, single point]"},
      {"smiles": "CNC(=O)c1cc(-c2ccc(O)c(F)c2)cc2c1OCCN2Cc1cccnc1", "Potency": "inconclusive [inhibitor, single point]"},
      {"smiles": "O=C(Cc1c[nH]c2ncc(-c3cccc(OC(F)(F)F)c3)cc12)NCc1cccnc1", "Potency": "inconclusive [inhibitor, single point]"},
      {"smiles": "O=C(Nc1ccccc1)N[C@H]1CO[C@H]2[C@@H]1OC[C@H]2OC(=O)Nc1ccccc1", "Potency": "inactive"},
      {"smiles": "COc1ccc(-c2cn3cc(C(=O)NCc4cccnc4)nc3s2)cc1", "Potency": "inactive"},
      {"smiles": "Cc1cccc(OCC(=O)NC(C)C(=O)N2CCN(c3ccccn3)CC2)c1", "note": "(stereo unspecified)", "Potency": "inconclusive [inhibitor, single point]"},
      {"smiles": "c1ccc2c(c1)CC(c1n[nH]c(C3CCOCC3)n1)CO2", "note": "(stereo unspecified)", "Potency": "inconclusive [inhibitor, single point]"},
      {"smiles": "O=C(Cc1ccccc1F)N1CC(Oc2ccc(-c3noc(-c4cccnc4)n3)cc2)C1", "Potency": "inactive"},
      {"smiles": "CCOCCCNC(=O)NCC12CCCC=C1NC(=O)CC2", "note": "(stereo unspecified)", "Potency": "inconclusive [inhibitor, single point]"},
      {"smiles": "COc1ccc(S(=O)(=O)N2CCC(Cc3nncn3-c3ccccc3)CC2)cc1", "Potency": "inactive"},
      {"smiles": "CC(C)(C)NC(=O)C[C@@H]1CCNC[C@@H]1Cc1cc(-c2ccc(F)cc2)on1", "Potency": "inconclusive [inhibitor, single point]"},
      {"smiles": "O=Cc1ccccc1-c1cc(F)cc(F)c1", "Potency": "inconclusive [inhibitor, single point]"},
      {"smiles": "c1ccc(-c2nnc3ccc(N4CCc5ccccc5C4)nn23)nc1", "Potency": "inactive"},
      {"smiles": "CCn1ccc(C(=O)NCC2Cn3cccc3CN2Cc2ccccc2)n1", "note": "(stereo unspecified)", "Potency": "inconclusive [inhibitor, single point]"},
      {"smiles": "O=C1N2CCCC2CN1C1CCN(Cc2ccc3ccccc3c2)CC1", "note": "(stereo unspecified)", "Potency": "inconclusive [inhibitor, single point]"},
      {"smiles": "Cc1ccccc1-c1nc(C2CC(=O)N(c3ccc(F)cc3)C2)no1", "note": "(stereo unspecified)", "Potency": "inconclusive [inhibitor, single point]"},
      {"smiles": "COC(=O)c1ccc(CN2C(=O)[C@@H]3C[C@@H](O)CN3C3(CN(Cc4ccc(OC)cc4)C3)C2=O)cc1", "Potency": "inactive"},
      {"smiles": "CCOc1ccc(CN(C)C2CCOc3ccccc32)cc1", "note": "(stereo unspecified)", "Potency": "inconclusive [inhibitor, full curve, poor fit]"},
      {"smiles": "Cc1ccc([S+](=O)([O-])NC2CCN(Cc3cccc(-c4ccc(F)c(F)c4)c3)CC2)cc1", "Potency": "inconclusive [inhibitor, single point]"},
      {"smiles": "Cc1cc2c(cc1CNC1CC(C)(C)Cc3nc(C(C)(C)C)ncc31)OCO2", "note": "(stereo unspecified)", "Potency": "inconclusive [inhibitor, single point]"},
      {"smiles": "O=C(O)C1c2ccccc2C(=O)N(Cc2ccccc2)C12CCCC2", "note": "(stereo unspecified)", "Potency": "inactive"},
      {"smiles": "CN(C)c1cc(N2CCCC(NC(=O)CCc3ccccc3)C2)ncn1", "note": "(stereo unspecified)", "Potency": "inactive"},
      {"smiles": "O=C(NCCc1ccccc1)C1CCN(C(=O)[C@H]2CCC[C@@H](O)C2)CC1", "Potency": "inconclusive [inhibitor, single point]"},
      {"smiles": "Cc1cnc(CCNC(=O)c2ccco2)n1C1CCC1", "Potency": "inconclusive [inhibitor, full curve, poor fit]"},
      {"smiles": "COCCNC(=O)c1cc(-c2ccccc2OC)c2cccn2n1", "Potency": "inconclusive [inhibitor, single point]"},
      {"smiles": "O=C(O)CCn1ncc2cc(OCC3CCN(C(=O)CC4CC4)CC3)ccc21", "Potency": "inactive"},
      {"smiles": "O=C(CCc1cccc(F)c1)N1CCC(C(=O)O)(n2cccn2)CC1", "Potency": "inconclusive [inhibitor, partial curve, poor fit]"},
      {"smiles": "C=CCNC(=O)O[C@@H]1CC[C@]2(C)C(CC[C@@H](O)[C@H]2CC(=O)NCc2ccc3c(c2)OCO3)[C@]1(C)CO", "note": "(stereo partly specified)", "Potency": "inconclusive [inhibitor, single point]"},
      {"smiles": "CCN(CC)C(=O)C[C@@H]1c2nc(NC(=O)N3CCOCC3)sc2C[C@@H]2[C@](C)(CO)[C@H](O)CC[C@]21C", "Potency": "inactive"},
      {"smiles": "COCCOc1cc(-c2noc([C@@H]3CCCN3C3CCN(C)CC3)n2)ccn1", "Potency": "inconclusive [inhibitor, single point]"},
      {"smiles": "Cc1c(F)c(N2CCNC(C)C2)cc2c1c(=O)c(C(=O)O)cn2C1CC1", "note": "(stereo unspecified)", "Potency": "inconclusive [inhibitor, single point]"},
      {"smiles": "O=C1CCN(C(=O)c2ccco2)CCOCCN1", "Potency": "inactive"},
      {"smiles": "COc1ccc(CC2CN(C(=O)c3cccnc3SC)CCO2)cc1", "note": "(stereo unspecified)", "Potency": "inconclusive [inhibitor, partial curve, poor fit]"},
      {"smiles": "O=C(O)C(c1cccc2c1OCC2)N1CCC(OCc2cccnc2)CC1", "note": "(stereo unspecified)", "Potency": "inconclusive [inhibitor, single point]"},
      {"smiles": "O=C1[C@@H]2[C@@H](CCN2C(=O)NC2CCCCC2)N(Cc2cccs2)C(=O)N1c1cccc(F)c1", "Potency": "inconclusive [inhibitor, single point]"},
      {"smiles": "O=C(CCC1CCCN(C(=O)c2ccc3c(c2)OCO3)C1)NCc1ccccc1Cl", "note": "(stereo unspecified)", "Potency": "inconclusive [inhibitor, single point]"},
      {"smiles": "CCOCCCNC(=O)[C@H]1CN(Cc2ccccc2)C[C@H]1C(=O)O", "Potency": "inconclusive [inhibitor, single point]"},
      {"smiles": "Cc1ccc(C(=O)C(C)CN2CCCCC2)cc1", "note": "(stereo unspecified)", "Potency": "inconclusive [inhibitor, single point]"},
      {"smiles": "CCOC(=O)C1CCN(C(=O)c2cc(-c3ccsc3)nc3c2cnn3C)CC1", "Potency": "inconclusive [inhibitor, single point]"},
      {"smiles": "OC/C=C/C=C/[C@H]1Cc2cc(O)cc(O)c2O1", "Potency": "inconclusive [inhibitor, single point]"},
      {"smiles": "CSc1ncc(CN2CCC(n3nccc3NC(=O)Cc3ccccc3)CC2)cn1", "Potency": "inactive"},
      {"smiles": "O=C(NCCn1c(=O)c(=O)[nH]c2ccccc21)C1CC(=O)N(c2n[nH]c3ccccc23)C1", "note": "(stereo unspecified)", "Potency": "inconclusive [inhibitor, partial curve, poor fit]"},
      {"smiles": "COc1ccc(C2Cn3nnc(-c4noc(-c5cc(F)ccc5Cl)n4)c3CO2)cc1", "note": "(stereo unspecified)", "Potency": "inconclusive [inhibitor, single point]"},
      {"smiles": "O=C(CN1C(=O)CNC1=O)NCCc1noc(C2CCCC2)n1", "Potency": "inconclusive [inhibitor, single point]"},
      {"smiles": "Cc1ccc(C(=O)N(CCCN)C(c2oc3cc(Cl)ccc3c(=O)c2Cc2ccccc2)C(C)C)cc1", "note": "(stereo unspecified)", "Potency": "inactive"},
      {"smiles": "Cn1ncc2c(C(=O)NCc3ccc4c(c3)OCO4)cc(-c3ccccc3)nc21", "Potency": "inactive"},
      {"smiles": "CC(C)c1ccccc1NC(=O)Cn1ccn2nc3c(c2c1=O)CCCCC3", "Potency": "inactive"},
      {"smiles": "O=C(NCC(F)F)C1CCCN(Cc2cccc(-c3ccc(F)cc3F)c2)C1", "note": "(stereo unspecified)", "Potency": "inactive"},
      {"smiles": "O=C(Cc1c[nH]c2ncc(-c3ccccc3)cc12)N1CCN(c2ccccn2)CC1", "Potency": "inconclusive [inhibitor, single point]"},
      {"smiles": "O=C(Cn1cnc2sccc2c1=O)NC1CCCc2c1[nH]c1ccccc21", "note": "(stereo unspecified)", "Potency": "inconclusive [inhibitor, single point]"},
      {"smiles": "CC(C)=CC(=O)N1CC[C@H](NC(=O)NC(C)C)[C@H]1C(=O)N[C@H](Cc1c[nH]c2ccccc12)C(N)=O", "Potency": "inconclusive [inhibitor, single point]"},
      {"smiles": "Cc1cc2cc(-c3c(C)noc3C)nc(N3CCN(c4ccccn4)CC3)c2o1", "Potency": "inconclusive [inhibitor, partial curve, poor fit]"},
      {"smiles": "N#Cc1cccc(C(=O)N2CCCCCCNC(=O)[C@@H]3C[C@@H](c4nc(Cc5ccccc5)no4)C[C@@H]32)c1", "Potency": "inconclusive [inhibitor, partial curve, poor fit]"}
    ]}
  ]
}
